# Measurements from PubChem BioAssay AID504706 (National Center for Advancing Translational Sciences (NCATS), 2011).
# In all, about 320,000 compounds went through this assay and about 200 (0.062%) were called active. The shares of active, inactive and inconclusive entries below differ from those in the screen. Calls come from the whole dose curve; as a rule, active = well fitted activation curve with a large enough effect; inconclusive = small, poorly fitted or top-dose-only effect; inactive = no such curve, though single readings can be large or run the other way. No potency is given beside an inconclusive call; the fits are too rough.
# Assay: qHTS assay for re-activators of p53 using a Luc reporter; note: nearly all actives have a fitted effect of over 45% in size; for activity change, positive = activation: % of control where 0% means no effect
# Conditions: H1299 p53-A138V BP100-luciferase reporter, luminescence, 24 h; series mostly up to 92.2 µM; activity change, positive = activation: at the top concentration
# In short: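 p53-null H1299 cells stably carrying temperature-sensitive p53-A138V and a BP100-luciferase reporter were pinned with compounds (4-point, 1:5 series) and held 24 hrs at 37 deg C. Luminescence was read 10 min after detection reagent.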
# Potency is the fitted concentration of half-maximal effect; tags give direction and shape of the fitted curve.
Compound,Potency,"activity change, positive = activation"
c1ccc(OCCSc2nnnn2-c2ccccc2)cc1,"inconclusive [activator, full curve, poor fit]",–
COc1cccc(C(=O)Nc2nnc(-c3cccs3)s2)c1,"inconclusive [activator, partial curve, poor fit]",–
COC(=O)c1ccc(N=NNc2cccc(Br)c2)cc1,"inconclusive [activator, partial curve, poor fit]",–
CC(O)C(=O)N/N=C/c1cccc(Cl)c1Cl (centres undefined),"inconclusive [activator, single point]",–
Cc1ccc2c(c1)c(N=Nc1cccc(C(=O)O)c1)c(O)n2C,–,inactive: 3.58%
CCCCn1c(CCC)nc([N+](=O)[O-])c1Sc1ccc(Cl)cn1,–,inactive: -21.7%
COC(=O)C1=CN(C(C)C)C=C(C(=O)OC)C1c1cccc(OC)c1,–,inactive: -3.69%
O=C(N/N=C/c1ccccc1O)c1cccc(C(F)(F)F)c1,"inconclusive [activator, partial curve, poor fit]",–
Nc1ccc(-c2nc3cc(N)ccc3s2)cc1,–,inactive: -1.6%
CN1C=CC=C/C1=C1/SC(=S)N(Cc2ccccc2)C1=O,"inconclusive [activator, single point]",–
CCOC(=O)/C(C#N)=C\c1cc(C)n(-c2ccccc2)c1C,"inconclusive [activator, partial curve, poor fit]",–
CCCCNC(=S)NNC(=O)c1csc(C(C)C)c1,–,inactive: 13.9%
CCOC(=O)Cc1csc(NC(=O)c2cnc3sc(C)cn3c2=O)n1,–,inactive: 12.5%
O=C(Nc1ccc(N2CCOCC2)cc1)c1nc2ccccc2s1,"inconclusive [activator, partial curve, poor fit]",–
O=C(CC(NC(=O)c1ccccc1)c1ccccc1)NCc1ccccc1 (centres undefined),"inconclusive [activator, single point]",–
c1ccc(COc2cccc(CN3CCc4ccccc4C3)c2)cc1,"inconclusive [activator, single point]",–
Cc1cccc(C(=O)Nc2ccc(O)cc2)c1,"inconclusive [activator, partial curve, poor fit]",–
Cc1ccc(-c2onc(C)c2C)cc1S(=O)(=O)N1CCOc2ccccc21,–,inactive: -8.82%
c1ccc(-c2csc(NC3=NCCCCC3)n2)cc1,"inconclusive [activator, full curve, poor fit]",–
O=C(NC1CCCCC1)c1cc(-c2ccc(O)cc2)on1,"inconclusive [activator, full curve, poor fit]",–
C/C(=N\O)c1sc(-c2ccccc2)nc1C,–,inactive: 26.2%
O=C(NCCN1CCOCC1)c1cc(-c2ccco2)on1,"inconclusive [activator, partial curve, poor fit]",–
COc1ccc(C2=NOC(CN3C(=O)c4ccccc4S3(=O)=O)C2)cc1 (centres undefined),"inconclusive [activator, full curve, poor fit]",–

Compound,Potency,"activity change, positive = activation"
CCN(CC)CCn1c(SCC(=O)Nc2ccc3c(c2)CCC3)nc2ccccc2c1=O,"inconclusive [activator, partial curve, poor fit]",–
C=CCc1ccc(OCC(O)COCC)c(OC)c1 (centres undefined),"inconclusive [activator, full curve, poor fit]",–
CCc1ccc2oc(C(=O)Nc3nonc3C)c(C)c2c1,"inconclusive [activator, full curve, poor fit]",–
NC(=O)c1ccc(NC(=O)CCCc2nc(-c3ccccc3Cl)no2)cc1,–,inactive: -1.13%
CCC(C)NC(=O)c1ccc(N2CCC3(CC2)OCCO3)c([N+](=O)[O-])c1 (centres undefined),"inconclusive [activator, single point]",–
N#Cc1c(N2CCSCC2)nsc1-c1ccccc1Cl,"inconclusive [activator, full curve, poor fit]",–
O=C(COC(=O)C1CC(=O)N(c2ccc3c(c2)OCCO3)C1)NC1CCCc2ccccc21 (centres undefined),"inconclusive [activator, partial curve, poor fit]",–
Cc1nc2ccc(S(=O)(=O)Nc3cc(-c4nc5cccnc5s4)ccc3C)cc2s1,"inconclusive [activator, partial curve, poor fit]",–
Cc1ccc(C(=O)Nc2ccc(N3CCOCC3)cc2)cc1,"inconclusive [activator, partial curve, poor fit]",–
CN1CCN(C(=O)/C=C/c2ccc(Cl)c(Cl)c2)CC1,"inconclusive [activator, full curve, poor fit]",–
Cc1cc(C)n2nc(/C(C#N)=C/c3ccccc3)c(C#N)c2n1,"inconclusive [activator, partial curve, poor fit]",–
CCOC(=O)CS(=O)(=O)c1nc(-c2ccc(F)cc2)cc(C(F)(F)F)n1,–,inactive: -39.3%
O=C(Nc1nnc(C2CC2)s1)c1ccc(Cl)nc1,"inconclusive [activator, full curve]",–
Cc1cc(NC(=O)COc2ccccc2C#N)no1,"inconclusive [activator, full curve, poor fit]",–
CNC(=O)Nc1ccc(C2SCCS2)cc1,–,inactive: 5.42%
NNC(=O)CSc1nc(-c2ccccc2)cn1-c1ccccc1,"inconclusive [activator, partial curve, poor fit]",–
Cc1nn(-c2nnc(NCc3ccccc3)nn2)c(C)c1Br,"inconclusive [activator, full curve]",–
COc1ccc(S(=O)(=O)N2CCOC2CNC(=O)C(=O)NCc2cccnc2)cc1C (centres undefined),–,inactive: -0.126%
CCOC(=O)c1sc(NC(=S)NC(=O)C2CC2)cc1C,–,inactive: 5.36%
CCOC(=O)c1sc(NC(=O)CCN2C(=O)c3cccc([N+](=O)[O-])c3C2=O)c(C(=O)OCC)c1C,"inconclusive [activator, single point]",–
COC(=O)c1ccccc1NC(=O)CSc1nnc(-c2ccoc2C)n1C,"inconclusive [activator, partial curve, poor fit]",–
CCN(C(=O)c1cn(C)c(=O)c2cc(OC)c(OC)cc12)c1cc(OC)ccc1OC,–,inactive: 1.02%
COc1ccc(C(=O)Nc2ccc3oc(Cc4ccc(Cl)cc4)nc3c2)cc1OC,–,inactive: 2.67%

Compound,Potency,"activity change, positive = activation"
O=C(/C=C\Nc1ccccn1)c1ccccc1,"inconclusive [activator, partial curve, poor fit]",–
CC(=O)c1ccc(N(CC(=O)NC2CCCCC2)C(=O)c2csnn2)cc1,"inconclusive [activator, partial curve, poor fit]",–
O=C(Nc1ccc(-c2nc3ccccc3[nH]2)cc1)c1ccco1,"inconclusive [activator, full curve, poor fit]",–
Cc1ccc(NC(=O)COc2ccc(Br)cc2C)cc1,"inconclusive [activator, partial curve, poor fit]",–
O=[N+]([O-])c1ccc(S(=O)(=O)NCCS(=O)(=O)N2CCN(c3ccccc3)CC2)cc1,–,inactive: -1.67%
COc1ccc(C(=O)Nc2ccc3c(c2)nc(CCNC(=O)c2ccco2)n3C)cc1,–,inactive: 5.48%
COc1ccc(NCC(=O)N/N=C/C=C\c2ccccc2)cc1,"inconclusive [activator, single point]",–
C/C(=N/NC(=O)c1ccc(Br)o1)C(C)C,"inconclusive [activator, full curve, poor fit]",–
CCCc1cc(=O)n2c([nH]c3ccccc32)c1C#N,"inconclusive [activator, partial curve, poor fit]",–
Cc1ccc(NC(=O)c2cc(-c3ccco3)nc3ccccc23)cc1S(=O)(=O)N1CCOCC1,–,inactive: -2.87%
COc1ccc(CNC(C)C23CC4CC(CC(C4)C2)C3)c(OC)c1OC (centres undefined),"inconclusive [activator, single point]",–
Cc1ccc(-c2nc3ccccc3[nH]2)cc1NC(=O)c1sc2cc(Cl)ccc2c1Cl,–,inactive: 18.6%
O=C(CNC(=O)c1ccccc1F)N/N=C/c1cc(Br)ccc1OC(=O)/C=C/c1ccco1,"inconclusive [activator, single point]",–
O=C(COC(=O)C(O)c1ccccc1)c1ccc2c(c1)OCCO2 (centres undefined),"inconclusive [activator, partial curve, poor fit]",–
COc1ccc(C)cc1S(=O)(=O)Nc1cccc(Cl)c1,"inconclusive [activator, single point]",–
CN(C(=O)c1ccc(S(=O)(=O)N2CCOCC2)cc1)C1CCS(=O)(=O)C1 (centres undefined),–,inactive: 3.11%
Cc1cc(C(=O)CSc2nnnn2C)c(C)n1-c1ccc2c(c1)OCCO2,"inconclusive [activator, partial curve, poor fit]",–
Nc1nnc(SCCCC(=O)c2ccc(F)cc2)s1,"inconclusive [activator, partial curve, poor fit]",–
CCCCNC(=O)CSc1nc2ccc(N3CCOCC3)cc2c(=O)n1CCc1ccccc1,"inconclusive [activator, partial curve, poor fit]",–
COc1ccc(-n2nc(C(=O)NCC(=O)N3CCC(C)CC3)c3ccccc3c2=O)cc1,"inconclusive [activator, full curve, poor fit]",–
Cn1cc(Br)c(C(=O)NC2CCCCC2)n1,"inconclusive [activator, single point]",–
COc1ccc(OCc2cc(-c3ccc(Cl)cc3)no2)cc1,–,inactive: 2.27%
COc1ccc(-c2cc(C(F)(F)F)n3nc(C(=O)O)nc3n2)cc1,–,inactive: -0.588%
